Data: article PMC4336329 (PLoS ONE, 2015)
The campaign covered roughly 310,000 compounds. About 2,200 (0.71%) showed an effect of 50% or more. Effects have a minus sign here. Some of the results follow.

target: human ether-à-go-go-related gene (hERG) potassium channel (human, UniProt Q12809); experiment: primary screen, population patch clamp on CHO cells stably expressing hERG
Sequence (Q12809 whole entry, looked up): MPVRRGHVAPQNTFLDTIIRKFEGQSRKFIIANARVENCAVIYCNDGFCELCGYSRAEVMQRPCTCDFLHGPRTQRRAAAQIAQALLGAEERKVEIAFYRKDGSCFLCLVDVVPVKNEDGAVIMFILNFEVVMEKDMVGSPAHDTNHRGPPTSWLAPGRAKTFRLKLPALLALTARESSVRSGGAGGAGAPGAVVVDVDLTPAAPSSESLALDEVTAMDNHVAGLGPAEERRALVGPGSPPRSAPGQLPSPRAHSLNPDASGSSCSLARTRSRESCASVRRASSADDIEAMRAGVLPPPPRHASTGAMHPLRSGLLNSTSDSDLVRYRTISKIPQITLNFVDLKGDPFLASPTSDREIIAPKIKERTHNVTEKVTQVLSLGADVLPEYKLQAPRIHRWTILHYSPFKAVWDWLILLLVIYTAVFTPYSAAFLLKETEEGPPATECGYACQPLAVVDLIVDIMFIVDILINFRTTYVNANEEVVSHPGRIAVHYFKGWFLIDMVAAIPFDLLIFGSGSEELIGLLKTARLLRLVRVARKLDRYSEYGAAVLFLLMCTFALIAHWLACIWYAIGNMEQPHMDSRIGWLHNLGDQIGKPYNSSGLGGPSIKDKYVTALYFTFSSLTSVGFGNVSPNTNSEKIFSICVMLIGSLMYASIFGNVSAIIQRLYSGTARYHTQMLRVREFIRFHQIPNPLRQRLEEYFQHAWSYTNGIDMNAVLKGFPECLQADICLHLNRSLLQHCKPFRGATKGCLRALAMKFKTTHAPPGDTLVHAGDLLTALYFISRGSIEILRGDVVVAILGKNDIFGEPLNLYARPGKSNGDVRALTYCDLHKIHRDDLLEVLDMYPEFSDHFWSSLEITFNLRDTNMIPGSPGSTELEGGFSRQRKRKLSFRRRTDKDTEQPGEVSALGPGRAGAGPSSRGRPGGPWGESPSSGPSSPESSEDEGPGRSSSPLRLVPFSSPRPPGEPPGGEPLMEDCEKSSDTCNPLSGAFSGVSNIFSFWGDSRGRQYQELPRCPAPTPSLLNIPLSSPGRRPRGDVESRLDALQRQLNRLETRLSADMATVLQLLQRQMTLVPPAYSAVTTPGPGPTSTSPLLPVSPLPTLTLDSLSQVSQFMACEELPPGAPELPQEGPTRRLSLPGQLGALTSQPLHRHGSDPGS

Row | SMILES | hERG current change (%, negative = inhibition) at 1uM
1 | Cc1occc1C(=O)N1CCN(C(=O)C2CCCO2)CC1 (stereo not shown) | -17.5%
2 | Cc1ccc(O)c(NC(=S)NC(=O)CC(C)C)c1 | 2.82%
3 | Cc1cccc(-c2nc3c(c(SCC(=O)N4CCCC4)n2)COC(C)(C)C3)c1 | 6.51%
4 | O=C(c1ccc(COc2ccc(Cl)cc2Cl)o1)N1CCCC1 | 9.08%
5 | O=C(NNc1ccc([N+](=O)[O-])cc1)C1CC2CCCC(C1)C2=O (stereo not shown) | -4.1%
6 | CCOP(=O)(OCC)C(CC)N1CCOCC1 (stereo not shown) | 14.5%
7 | COCCCn1c(SCC(=O)Nc2oc(C)c3c(C)n[nH]c(=O)c23)nc2sc3c(c2c1=O)CCC3 | 2.88%
8 | CC(C)/C=C1\CCc2c([nH]c3ccccc23)C1=O | 4.46%
9 | COc1ccc(-n2cnnc2SCc2ncc(-c3ccccc3)o2)cc1 | -5.42%
10 | Cc1cc(C)cc(-n2c(C)cc(/C=C3\C(=O)NC(=O)N(C)C3=O)c2C)c1 | -4.29%
11 | Cc1cccc(C(=O)N2CCCC(N3CCN(c4ccc(F)cc4)CC3)C2)n1 (stereo not shown) | 20.8%
12 | O=C(COC(=O)C1CC2C=CC1C2)Nc1cccc(S(=O)(=O)N2CCCCC2)c1 (stereo not shown) | 12%
13 | COc1ccc(C2=NN(C(N)=S)C(c3ccco3)C2)cc1 (stereo not shown) | 12.4%
14 | CCOC(=O)c1ccc(NC(=O)C2CCN(S(=O)(=O)c3ccccc3)CC2)cc1 | -2.48%
15 | Cc1[nH]n(-c2ccccc2)c(=O)c1N=Nc1ccccc1C(=O)N1CCOCC1 | -0.376%
16 | CC(C)C(=O)Nc1cccc(-c2nc3ncccc3o2)c1 | 15.9%
17 | CN(Cc1ccccc1)C(=O)c1nc2ccccn2c1CN1CCCC1c1nccs1 (stereo not shown) | 0.748%
18 | CN(C(=O)c1ccc2c(c1)CCN2S(C)(=O)=O)c1ccccc1 | 8.99%
19 | O=C(Nc1ccc(O)c(-c2nc3ccccc3o2)c1)C1(c2ccccc2)CCCC1 | 18.9%
20 | COc1ccc2c(c1)c(C(O)CN1CCN(Cc3ccc4c(c3)OCO4)CC1)c(C)n2C (stereo not shown) | 12.5%
21 | CCOc1ccc(C2C(C#N)=C(N)Oc3n[nH]c(C)c32)cc1OC(=O)C1CC1 (stereo not shown) | 13.7%
22 | Br.C=CCN1C(c2cccc(C(F)(F)F)c2)=CS/C1=C(/C#N)c1nnc(N2CCOCC2)n1-c1ccccc1 | 6.73%
23 | O=C(Cc1ccccc1)Nc1cccnc1 | 8.29%
24 | CCSC1=NCCN1C(=O)Cc1ccc(-c2ccccc2)cc1 | 12%
25 | CSc1nc(N2CCOCC2)cc(N2CCOCC2)n1 | 9.32%
26 | O=C(COc1ccccc1Br)N1CCN(C(=O)c2ccco2)CC1 | 4.04%
27 | CCN(CC)CCCNC(CC(=O)Nc1cccc([N+](=O)[O-])c1)C(=O)O (stereo not shown) | 3.62%
28 | CNS(=O)(=O)c1cccc(C(=O)OCc2cc(=O)oc3c(C)c(O)ccc23)c1 | 14.5%

Row | SMILES | hERG current change (%, negative = inhibition) at 1uM
29 | CCOC(=O)c1[nH]ncc1CN1CCCC(C(=O)c2ccc(SC)cc2)C1 (stereo not shown) | -38%
30 | Cc1csc(NC(=O)C2CCCC2)n1 | 13.9%
31 | CCc1cccc(NC(=O)Cn2ncn3c(cc4ccccc43)c2=O)c1 | -0.136%
32 | COc1ccc(C(CC(=O)Nc2ccccn2)N2Cc3ccccc3C2=O)cc1OC (stereo not shown) | 6.13%
33 | COc1ccc(C(=O)N/N=C(/C)c2cccc(NC(=O)c3ccncc3)c2)cc1OC | 17.2%
34 | O=C(COc1ccccc1Cl)N1N=C(c2cccs2)CC1c1ccco1 (stereo not shown) | 15.1%
35 | CCCCn1c(SCC(=O)Nc2cc(C(F)(F)F)cc(C(F)(F)F)c2)nnc1C(CC)N(C)C (stereo not shown) | 1.38%
36 | O=C(c1cccs1)N1CCN=C1SCc1cccnc1 | 11.4%
37 | CC(C)CC(=O)Nc1ccc2c3c(cccc13)CC2 | 9.67%
38 | COc1cc(C(=O)OCc2cc(=O)oc3c(C)c(C)ccc23)ccc1OC(F)F | 7.96%
39 | C/C(=N\NS(=O)(=O)c1ccc([N+](=O)[O-])cc1)c1ccc2c(c1)OCO2 | 15.1%
40 | CCN(CC)c1ccc(NC(=O)CSc2nnc3nc(C)cc(C)n23)cc1 | 5.63%
41 | COc1ccc(-n2c(SCC(=O)Nc3cccc(S(N)(=O)=O)c3)nc3ccccc3c2=O)cc1OC | 10.1%
42 | COC(=O)c1ccccc1NC(=O)CCS(=O)(=O)c1cc2c(cc1C)NC(=O)CO2 | -28.7%
43 | CC(C)c1c(C(=O)N/N=C/c2ccccc2OCc2c(F)cccc2Cl)nnn1-c1nonc1N | 19.7%
44 | O=C(COC(=O)Cc1cccc(C(F)(F)F)c1)NC1CCS(=O)(=O)C1 (stereo not shown) | -1.84%
45 | COC(=O)CCC(=O)OC1(C)C(=O)C=C2C=C(C3CC3)N(Cc3ccc4c(c3)OCO4)C=C2C1=O (stereo not shown) | 8.45%
46 | COC(=O)COc1ccc2oc(=O)cc(-c3cc4cccc(OC)c4o3)c2c1 | 18.9%
47 | CC1(C)Cc2c(c(N3CCOCC3)nc3snc(Br)c23)CO1 | 2.81%
48 | Cc1ccc(OCCCCN2CCCCC2)c(C)c1 | 7.06%
49 | O=C(Nc1ccc2c(c1)OCO2)c1noc2c1CCCCC2 | -2.66%
50 | COc1cc(-c2nnc3sc(C4CCCCC4)nn23)cc(OC)c1OC | 2%
51 | O=C(Nc1ccc2c(c1)OCO2)c1ccc(Cl)nc1 | 11.6%
52 | COc1ccc(N=C2S/C(=C\c3ccc(C)s3)C(=O)N2CC(C)C)cc1 | 8.07%
53 | CCNC(=S)N1CCN(c2ccc([N+](=O)[O-])cc2)CC1 | -50.5%
54 | Cc1ccc(-n2nnnc2CNC(=O)c2ccc([N+](=O)[O-])o2)cc1C | 4.38%
55 | CC(C)CN(C(=O)COC(=O)c1ccc(C#N)cc1)C1CCS(=O)(=O)C1 (stereo not shown) | -8.88%
